Test results published in publication PMC4336329 (PLoS ONE, 2015).
Hit rate of the full screen: of about 310,000 compounds, about 14,000 (4.5%) showed an effect of 50% or more. Effects have a minus sign here. This is one part of the list.

Each compound was assayed against human ether-à-go-go-related gene (hERG) potassium channel (human, UniProt Q12809) (assay: primary screen, population patch clamp on CHO cells stably expressing hERG).
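Note: peak tail current of the secondary pulse compared with the same well before compound.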

Sequence of human ether-à-go-go-related gene (hERG) potassium channel (Q12809 whole entry, looked up): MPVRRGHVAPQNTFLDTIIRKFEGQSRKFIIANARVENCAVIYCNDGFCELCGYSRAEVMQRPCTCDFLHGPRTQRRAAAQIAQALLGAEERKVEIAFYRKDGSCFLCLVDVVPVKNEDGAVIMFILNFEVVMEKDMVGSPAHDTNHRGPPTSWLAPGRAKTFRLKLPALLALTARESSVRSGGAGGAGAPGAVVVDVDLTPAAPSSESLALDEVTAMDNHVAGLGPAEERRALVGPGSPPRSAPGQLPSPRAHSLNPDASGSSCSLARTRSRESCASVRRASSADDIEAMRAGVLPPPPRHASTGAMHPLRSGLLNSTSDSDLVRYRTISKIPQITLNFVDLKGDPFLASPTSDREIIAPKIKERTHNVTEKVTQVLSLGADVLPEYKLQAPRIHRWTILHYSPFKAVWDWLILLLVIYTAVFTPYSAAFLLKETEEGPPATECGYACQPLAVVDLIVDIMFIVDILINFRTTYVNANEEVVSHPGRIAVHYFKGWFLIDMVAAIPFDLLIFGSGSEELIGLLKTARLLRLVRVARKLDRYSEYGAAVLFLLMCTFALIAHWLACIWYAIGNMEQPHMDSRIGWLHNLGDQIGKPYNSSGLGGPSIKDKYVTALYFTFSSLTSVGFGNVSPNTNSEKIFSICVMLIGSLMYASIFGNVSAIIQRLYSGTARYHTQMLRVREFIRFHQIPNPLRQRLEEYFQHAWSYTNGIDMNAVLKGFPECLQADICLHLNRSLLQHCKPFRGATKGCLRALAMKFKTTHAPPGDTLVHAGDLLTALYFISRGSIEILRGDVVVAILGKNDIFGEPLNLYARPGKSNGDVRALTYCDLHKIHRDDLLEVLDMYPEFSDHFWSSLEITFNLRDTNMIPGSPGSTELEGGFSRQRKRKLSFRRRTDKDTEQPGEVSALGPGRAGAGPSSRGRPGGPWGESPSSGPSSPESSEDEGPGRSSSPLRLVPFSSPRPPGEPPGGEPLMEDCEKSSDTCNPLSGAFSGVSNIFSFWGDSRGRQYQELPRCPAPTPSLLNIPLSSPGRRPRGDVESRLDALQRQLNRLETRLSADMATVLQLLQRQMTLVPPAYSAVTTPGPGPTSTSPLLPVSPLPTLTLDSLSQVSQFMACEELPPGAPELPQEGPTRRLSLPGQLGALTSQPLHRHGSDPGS

Structure (SMILES)	hERG current change (%, negative = inhibition) at 10uM [%]
O=C(Cn1cnc2ccccc2c1=O)c1cccs1	11.7
O=C(CSc1nc2ccccc2c(=O)n1-c1ccc(F)cc1F)Nc1ccc2c(c1)CCC2	-5.3
CN(C1CCCCC1)S(=O)(=O)c1ccc(NC(=O)c2ccco2)cc1	-42.9
CCN(Cc1ccccc1)C(=O)c1cc(-c2ccc(OC)c(OC)c2)nc2ccccc12	-7.33
O=C1OC(c2ccccc2)/C(=C(/O)c2ccccc2)C1=O (stereo not shown)	13.1
Cc1cc(C)cc(N(CCC#N)C(=O)CSc2nc3nc(C)cc(C)n3n2)c1	-15.9
C=CCn1c(C)cc(-c2csc(NCC)n2)c1C	-0.487
O=C(CSCc1ccccn1)Nc1ccccc1	1.85
O=C(NC12CC3CC(CC(C3)C1)C2)c1ccc(N2CCNCC2)c([N+](=O)[O-])c1	-25.2
CCNc1nc(NCC)nc(Oc2ccc(OCC)nn2)n1	13.9
O=C(COc1ccc(F)cc1Cl)N(Cc1nnc(-c2ccccc2Cl)o1)C1CC1	-34.7
COc1ccc(-c2nc(C)c(C(C)=O)n2O)cc1	19
O=c1c2c3n(c(=S)nc2[nH]n1-c1ccccc1)CCCCC3	17.2
Cc1cc2c(s1)Nc1ccccc1N=C2N1CCN(C)CC1	-13.2
Cn1c(=O)c(=O)n(C)c2cc(S(=O)(=O)NCc3ccc(Cl)cc3)ccc21	-26.3
Cc1ccc(CSc2ncnc3c2cnn3-c2ccc(C)cc2)cc1	30.7
O=C(CCc1ccccc1)N1CCN(S(=O)(=O)c2cccs2)CC1	-21.9
Cc1ccc(SCc2cc(=O)[nH]c(N3CCN(Cc4ccc5c(c4)OCO5)CC3)n2)cc1	9.08
N#C/C(=C\c1ccc(O)cc1)C(=O)N1CCCC1	19.1
O=C(CCc1nc2ccccc2c(=O)[nH]1)OCC(=O)N1CCc2ccccc21	17.1
COc1cc(-c2noc(CCCC(=O)NCc3ccco3)n2)cc(OC)c1OC	-12.1
CC(=O)Nc1ccc(S(=O)(=O)NCC(=O)OC(C)c2ccccc2Cl)cc1 (stereo not shown)	-4.38
COc1cccc(C2=NOC(C(=O)Nc3cccnc3)C2)c1 (stereo not shown)	10.3

Structure (SMILES)	hERG current change (%, negative = inhibition) at 10uM [%]
CC(C)C(NC(=O)c1ccccc1)C(=O)NCC(c1ccccc1)N(C)C (stereo not shown)	-0.00722
COc1ccc(NC(=O)Nc2nnc(Cc3ccccc3)s2)cc1	12.1
Cc1ccc(C)c(NC(=O)CN(C)C(=O)c2cccc(S(=O)(=O)N3CCN(Cc4ccccc4)CC3)c2)c1	9.47
O=C(c1cc(COc2ccc(F)cc2Cl)on1)N1C[C@H]2CC[C@H]1C2	-7.99
O=C(Oc1ccc2c(c1)OCO2)c1cccs1	4.6
O=C(CN(Cc1ccc(F)cc1)C(=O)CCC(=O)Nc1nccs1)NCC1CCCO1 (stereo not shown)	12.4
O=C1CC(C(=O)O)C2(CCCC2)O1 (stereo not shown)	-2.45
COc1cccc(NC(=O)COC(=O)c2ccccc2C(=O)N(C)c2ccccc2)c1	-9.28
CCCCN(CC(=O)Nc1c(C)cccc1CC)C(=O)SCC	1.07
CCn1cc(/C=C/C(=O)Nc2ccn(Cc3c(F)c(F)c(F)c(F)c3F)n2)cn1	-5.77
O=C(CCC(=O)Nc1cccc([N+](=O)[O-])c1)NCc1ccccc1	-11.6
O=C(Nn1cnnc1)C(c1ccccc1)c1ccccc1	2.78
Cc1nnc(NC(=O)COc2ccccc2)s1	2.23
COc1cc(CC(=O)N(C)CC(=O)Nc2cc(C)ccc2C)cc(OC)c1OC	11
O=C1NC(=Nc2ccccc2)S/C1=C\c1cccnc1	-18.4
C/C(=N\NC(=O)C(=O)Nc1cccc(Cl)c1)c1ccncc1	-12.1
CCOC(=O)C(Cc1ccc(NC(=O)/C(=C/c2ccc(OC(C)=O)cc2)NC(C)=O)cc1)N1C(=O)c2ccccc2C1=O (stereo not shown)	4.63
CC(=O)c1ccc(OCC(=O)Nc2ccc3c(c2)CCC3)cc1	7.89
S=C(Nc1ccc2nccnc2c1)N1CCCC1	42.5
CN1CCN(/C=N/c2c(C#N)cnn2-c2ccccc2)CC1	-19
CSc1ccc(CN2CCCN(C)CC2)cc1	-10.1
COc1cc(C)c(Cl)c(C)c1S(=O)(=O)NCc1cccnc1	4.92
CC1CCCN(c2ccc(C(=O)Nc3nnc(C4CC4)s3)cc2[N+](=O)[O-])C1 (stereo not shown)	9.38
